The campaign covered roughly 310,000 compounds. About 14,000 (4.5%) showed an effect of 50% or more. Effects have a minus sign here. This is one part of the list.
molecular target: human ether-à-go-go-related gene (hERG) potassium channel (human, UniProt Q12809); test: primary screen, population patch clamp on CHO cells stably expressing hERG
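Further: peak tail current of the secondary pulse compared with the same well before compound.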

Sequence of human ether-à-go-go-related gene (hERG) potassium channel (Q12809 whole entry, looked up): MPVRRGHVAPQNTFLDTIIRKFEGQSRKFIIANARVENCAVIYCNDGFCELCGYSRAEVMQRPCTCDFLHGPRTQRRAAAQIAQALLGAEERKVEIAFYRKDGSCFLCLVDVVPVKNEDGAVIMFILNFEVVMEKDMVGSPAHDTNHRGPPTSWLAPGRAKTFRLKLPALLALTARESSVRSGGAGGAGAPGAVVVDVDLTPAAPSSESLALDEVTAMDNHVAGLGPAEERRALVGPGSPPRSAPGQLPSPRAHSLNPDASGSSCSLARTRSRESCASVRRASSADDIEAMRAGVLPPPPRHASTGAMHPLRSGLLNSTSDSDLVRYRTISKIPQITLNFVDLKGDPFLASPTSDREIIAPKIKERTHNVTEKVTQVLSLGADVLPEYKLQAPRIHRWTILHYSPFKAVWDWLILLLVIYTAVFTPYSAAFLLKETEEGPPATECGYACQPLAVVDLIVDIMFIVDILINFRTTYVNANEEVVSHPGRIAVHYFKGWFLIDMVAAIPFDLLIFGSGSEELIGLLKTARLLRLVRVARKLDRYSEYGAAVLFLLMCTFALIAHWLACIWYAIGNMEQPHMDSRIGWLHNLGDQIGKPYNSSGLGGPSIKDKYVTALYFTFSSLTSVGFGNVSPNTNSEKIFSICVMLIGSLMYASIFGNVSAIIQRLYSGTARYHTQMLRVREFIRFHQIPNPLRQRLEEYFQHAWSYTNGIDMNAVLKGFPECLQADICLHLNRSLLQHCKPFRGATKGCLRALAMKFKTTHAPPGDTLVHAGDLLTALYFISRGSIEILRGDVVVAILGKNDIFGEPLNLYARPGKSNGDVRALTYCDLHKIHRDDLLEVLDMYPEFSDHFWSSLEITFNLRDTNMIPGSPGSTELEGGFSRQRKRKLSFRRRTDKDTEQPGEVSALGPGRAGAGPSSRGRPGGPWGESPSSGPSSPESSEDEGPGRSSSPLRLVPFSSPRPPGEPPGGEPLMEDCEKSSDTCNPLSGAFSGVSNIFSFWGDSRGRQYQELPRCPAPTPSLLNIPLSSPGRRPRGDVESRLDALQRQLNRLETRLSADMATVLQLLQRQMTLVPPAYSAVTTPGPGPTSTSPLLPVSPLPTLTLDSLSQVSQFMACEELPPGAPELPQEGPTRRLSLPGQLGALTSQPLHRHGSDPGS

| SMILES | hERG current change (%, negative = inhibition) at 10uM [%] |
| --- | --- |
| CCC(NC(=O)c1ccccc1NC(=O)c1ccc(OC)cc1)C(=O)N1CCCC1 (centres unmarked) | -6.54 |
| COC(=O)Cn1cnc2c1c(=O)n(C)c(=O)n2C | 8.74 |
| COc1ccc(/C=N/NC(=O)c2cccnc2)c2ccccc12 | 25.1 |
| CCOc1ccc(S(=O)(=O)Nc2ccc3c(c2)c2c(n3S(=O)(=O)c3ccc(OCC)cc3)CCCC2=O)cc1 | 12.4 |
| Cc1ccccc1C(=O)N1CCC(C(=O)Nc2ccc(S(=O)(=O)N3CCOCC3)cc2)CC1 | 8.3 |
| CN(C)c1ccc(S(=O)(=O)N2CCCCC2)cc1NC(=O)C1CSC2(C)CCC(=O)N12 (centres unmarked) | -22.3 |
| COc1ccc(-c2[nH]c(-c3cc(OC)c4c(c3)OCO4)nc2-c2ccccc2)cc1 | -20.3 |
| CC(Nc1ccccc1)c1cc(Cl)ccc1O (centres unmarked) | -10.6 |
| Oc1ccccc1C1CC(c2cccs2)=NC(c2ccc(Cl)cc2)N1 (centres unmarked) | 20.6 |
| COc1ccc([N+](=O)[O-])cc1NC(=O)c1cn(-c2ccc(C)c(C)c2)c(=O)c2ccccc12 | 7.97 |
| Cc1cccc(NC(=O)c2ccc(OC3CSC3)cc2)c1 | 6.4 |
| CCCCC(=O)NC(N1CCCCC1)C(Cl)(Cl)Cl (centres unmarked) | -9.58 |
| Cc1cccc(NC(=O)CCNS(=O)(=O)c2ccc3[nH]c(=O)oc3c2)c1 | 1.1 |
| Cc1ccc(N(CC(=O)Nc2c(C)cccc2C)S(C)(=O)=O)cc1 | 1.65 |
| CCOCCCNC(=O)c1cc2c(-c3ccc(Cl)cc3)nn(C)c2s1 | 9.31 |
| CC12CCC(C(=O)NC(c3ccccc3)c3ccccc3)(OC1=O)C2(C)C (centres unmarked) | -37.2 |
| CCCC(=O)c1cn(CC(=O)OC)c2ccccc12 | 14.5 |
| O=C(CCc1ccccc1)NCCC1=CCCCC1 | -14.2 |
| COc1cccc(C2CC(c3cccs3)=NN2S(C)(=O)=O)c1 (centres unmarked) | 3.9 |

| SMILES | hERG current change (%, negative = inhibition) at 10uM [%] |
| --- | --- |
| Cc1cccc(-c2nnc(SCC#N)n2C)c1 | 13.2 |
| O=C(NC1CCCC1)C(NS(=O)(=O)c1cccc2nsnc12)c1ccccc1 (centres unmarked) | -10.5 |
| CCCCOc1ccc(-n2nc(C)cc2C)nn1 | -16.3 |
| O=C(CC(C(=O)O)c1ccccc1)Nc1cccc2ccccc12 (centres unmarked) | 19.6 |
| Cc1nn(Cc2ccc(Cl)cc2Cl)c(Cl)c1C(=O)NC1CCCc2ccccc21 (centres unmarked) | -6.34 |
| COc1ccc(S(=O)(=O)N2CCOC2CNC(=O)C(=O)NCc2ccncc2)cc1 (centres unmarked) | 3.26 |
| CCOC(=O)c1c(C)oc2c(CC(=O)c3ccccc3)c(Cl)c(O)c(O)c12 | -9.42 |
| CCOC(=O)C1CCN(C(=O)c2cccs2)CC1 | 12 |
| CCn1cc(S(=O)(=O)Nc2cc(F)ccc2C)cn1 | 11.7 |
| CC(=O)Nc1ccc(S(=O)(=O)NC2CCS(=O)(=O)C2)cc1Cl (centres unmarked) | 1.14 |
| COc1cc(C(=O)NCC(=O)OCn2nnc3ccccc3c2=O)cc(OC)c1OC | 16.9 |
| CC(=O)COc1ccc(-c2csnn2)cc1 | 8.01 |
| COc1cccc(NC(=O)COC(=O)c2c(F)cccc2F)c1 | -1.53 |
| COc1ccc(NS(=O)(=O)c2ccc(N3CCOCC3)c(NC(=O)c3ccc(F)cc3)c2)cc1 | -13 |
| O=C(O)CC/C(=N\NC(=O)c1ccc(F)cc1)c1ccc(Br)cc1 | 4.33 |
| Cc1cc(N=NC(=O)c2ccccc2O)c2ccccc2c1O | 3.93 |
| O=C1CN(C(=O)COC(=O)C2CC(=O)N(Cc3ccco3)C2)c2ccccc2N1 (centres unmarked) | -7.99 |
| Cc1ccc(NC(=O)CSc2nnc(CNC(=O)c3ccccc3F)o2)cc1Cl | 5.07 |
| Cc1ccccc1NC(=S)N(CCN(C)C)C(C)c1ccccn1 (centres unmarked) | -8.78 |

| SMILES | hERG current change (%, negative = inhibition) at 10uM [%] |
| --- | --- |
| O=C(NCCc1cccc(C(F)(F)F)c1)C1CCC(=O)N(C2CC2)C1 (centres unmarked) | 3.12 |
| O=C(CSc1nnc(COc2ccccc2)o1)Nc1nccs1 | 7.97 |
| CS(=O)(=O)N1CCC(C(=O)Nc2ccc(OCc3ccccc3)cc2)CC1 | -0.722 |
| CC(=O)N1c2ccc(S(=O)(=O)N3CCC(C(=O)NCc4ccc(Cl)cc4)CC3)cc2CC1C (centres unmarked) | -0.255 |
| O=S(=O)(NCCc1ccccc1)c1ccc(Br)s1 | 4.74 |
| CC(=O)c1ccc(N2CCN(CC(=O)Nc3cc(C)on3)CC2)cc1 | -7.9 |
| COc1ccc([N+](=O)[O-])cc1NS(=O)(=O)c1cc(C(=O)NCc2cccnc2)ccc1Cl | -18.2 |
| CCCn1c2c(c(O)c(C(=O)Nc3ccc(OCC)cc3)c1=O)CCCC2 | 0.963 |
| COCCNC(=O)c1cc2c(=O)n(C)c3ccccc3c2n1C | 6.53 |
| COc1ccc2c(c1)cc(C(=O)N[C@H](C(=O)N1CCC[C@H]1C(=O)O)C(C)C)n2C | 13.5 |
| O=C(N/N=C/C=C/c1ccc2c(c1)OCO2)C(O)c1ccccc1 (centres unmarked) | -2.54 |
| COc1ccccc1CN(Cc1nc2ccccc2c(=O)[nH]1)S(=O)(=O)c1ccc2ccccc2c1 | 16.6 |
| Cc1nnc(SCC(=O)Nc2c(C)n(C)n(-c3ccccc3)c2=O)n1Cc1ccccc1 | 3.96 |
| Cc1nc2ccccc2n1CSc1ccccc1 | -23.7 |
| CS(=O)(=O)c1ncc(CO)n1Cc1ccccc1 | 5.69 |
| COc1ccc(-n2c(C)cc(-c3cn4cccc(C)c4n3)c2C)cc1 | -11.9 |
| Cc1cc(C)cc(NC(=O)N2CCCC2C(=O)NCc2ccco2)c1 (centres unmarked) | -13.7 |
| Nn1c(C2CCCCC2)nc2ccccc2c1=O | -14.1 |

Source: PMC4336329 (PLoS ONE, 2015)
